Assay results taken from the supplement of paper PMC4166925.
± gives the standard deviation of the averaged measurements. In all, about 33,000 sequences were measured (“E-score (dimensionless, -0.5 to 0.5)”: median about -0.049, highest 2% from about 0.37 on). The list shows a part of the results.

The sequences below were run on T1, PmTbr T-box DNA-binding domain (GST fusion) (assay: PBM E-score of 8-mer (E-score (dimensionless, -0.5 to 0.5)); Tbr is Tbrain of the sea star Patiria miniata (Pm) or the sea urchin Strongylocentrotus purpuratus (Sp); higher = stronger binding preference; most listed sequences are background and not binding sites). Conditions: the construct has about 5 more residues each side.
T1 sequence: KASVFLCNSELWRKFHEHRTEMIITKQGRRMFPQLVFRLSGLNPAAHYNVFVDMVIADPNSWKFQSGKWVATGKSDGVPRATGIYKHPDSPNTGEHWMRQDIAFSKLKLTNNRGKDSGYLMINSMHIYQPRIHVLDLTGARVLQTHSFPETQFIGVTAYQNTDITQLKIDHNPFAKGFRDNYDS
In short: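 Using the Universal PBM Analysis Suite, every ungapped 8-mer received an enrichment E-score averaged over duplicate arrays. Probe intensities came from double-stranded Universal Agilent oligonucleotide arrays incubated with 200 nM GST-fused Tbr T-box DNA-binding domain in PBS (pH 7.5). That protein was expressed in BL21 E. coli at 20 °C and purified by glutathione affinity chromatography.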

Sequence | PBM E-score of 8-mer
CCGTGGCC | -0.129 ± 0.072
CTGAAAAG | -0.0458 ± 0.018
ATTATCCC | -0.08 ± 0.072
ATGCGCAA | -0.0878 ± 0.083
ACCAGCTA | 0.0355 ± 0.021
ACTGCCCA | -0.0483 ± 0.017
CGTGAAAG | 0.273 ± 0.013
CCATAGGG | 0.016 ± 0.077
CTAAGTGC | 0.237 ± 0.01
TGCAAGCA | 0.017 ± 0.0014
CGTCATTC | -0.064 ± 0.0071
GTCTGCGA | 0.0222 ± 0.049
AGATGATC | -0.0445 ± 0.035
AGTCGTCG | 0.0279 ± 0.033
CATGCCTC | -0.1979 ± 0.00083
CATGCTCA | 0.00541 ± 0.032
AGCCTTCG | -0.0545 ± 0.054
CTAGCGGC | 0.04621 ± 0.00013
GTAGCTAA | -0.0459 ± 0.12
CAGGCAGA | -0.264 ± 0.089
AGAGGGTG | 0.383 ± 0.011
GCCGCGTA | -0.0412 ± 0.039

Sequence | PBM E-score of 8-mer
AGTAGGCC | -0.261 ± 0.043
AACTGGTC | -0.302 ± 0.037
CGAGGATA | -0.123 ± 0.041
GAAGCGAC | 0.0681 ± 0.066
AAGCCTAT | -0.165 ± 0.013
ATCGTGGA | -0.0947 ± 0.04
GCCTCAAA | -0.28 ± 0.021
AACCAAGG | -0.254 ± 0.027
AAAGGCGT | 0.265 ± 0.059
GCTAAACA | 0.0395 ± 0.097
CTATGCCA | 0.0639 ± 0.042
CTGCAGGC | -0.111 ± 0.025
CAACCACG | 0.0872 ± 0.014
GGTTATAA | -0.0586 ± 0.011
AATACTGT | -0.024 ± 0.036
AACCTGAT | -0.0679 ± 0.035
CACCGGCG | 0.0568 ± 0.031
GGCAGAGA | -0.156 ± 0.013
CCAGCTTA | -0.0765 ± 0.032
AATATAAG | -0.306 ± 0.005
TGACGCAA | 0.104 ± 0.043
AACTGCAT | -0.201 ± 0.029

Sequence | PBM E-score of 8-mer
CAATCCTC | -0.0492 ± 0.042
ACGAATCA | -0.0839 ± 0.036
CGGCCATC | -0.132 ± 0.016
AATATGCT | 0.0157 ± 0.011
AGTGGGGG | -0.167 ± 0.015
AGAAGTTG | 0.104 ± 0.03
TAATGTGA | 0.244 ± 0.0076
ATGGAGCC | -0.262 ± 0.049
GTAGTTCA | -0.124 ± 0.098
CAAGGCAC | -0.109 ± 0.0035
CTGTGGAC | -0.104 ± 0.0043
CCCCGGGC | -0.169 ± 0.02
GTACCTGA | -0.259 ± 0.067
TATAAGCA | -0.194 ± 0.072
AAGCACTG | -0.0944 ± 0.03
AACTCCTA | -0.0508 ± 0.039
AGATATTG | -0.067 ± 0.026
GAGGACTC | -0.29 ± 0.01
CCGTTTGC | 0.0209 ± 0.077
AGACGCAG | -0.11 ± 0.021
CTTACCGC | -0.0899 ± 0.032
ACTCAACA | 0.217 ± 0.016

Sequence | PBM E-score of 8-mer
GGACCGCA | -0.126 ± 0.082
CGTGAGGA | 0.142 ± 0.019
CTACCAAC | -0.0221 ± 0.0059
AGTTACCC | -0.0906 ± 0.018
GACGCTGC | -0.109 ± 0.025
GCCAATGA | 0.109 ± 0.018
ACTAAAGA | -0.19 ± 0.064
CAGTTTTA | 0.0526 ± 0.075
ACCCTAGA | -0.0223 ± 0.011
CAGTCCAC | 0.0964 ± 0.049
CCAGGTAG | -0.0154 ± 0.0037
CTTCAAAG | 0.0114 ± 0.059
ATCAGGAT | -0.104 ± 0.035
CAATTCGA | -0.0924 ± 0.0073
GCTTATCC | 0.0416 ± 0.018
ATGTACAG | 0.0352 ± 0.067
CGACGTAG | -0.0817 ± 0.009
ATCCGGAT | -0.204 ± 0.095
AGAGATGC | -0.133 ± 0.027
ATGTCCAG | -0.0643 ± 0.0044
